# Results as given in the supplement of paper PMC8728848.
# Some of the results follow.
# B1: NKR-PIC (Mus musculus) (protein)
# chain: GTGQKPSREKCCVFIQENLNKTTDCSVNLECPQDWLLHRDKCFHVSQVSNTWEEGQADCGRKGATLLLIQDQEELRFLLDSIKEKYNSFWIGLRFTLPDMNWKWINGTTFNSDVLKITGVTENGSCASILGDKVTPESCASDNRWICQKELNHETPSNDSGT
# Experiments:
# Experiment in all cases: glycan array binding signal (z-score within array); higher = stronger binding
# Conditions in all cases: glycan notation: IUPAC condensed, linker removed
# [1] = molecular target: Neu5Ac(a2-6)Gal(b1-4)GlcNAc(b1-2)Man(a1-3)[Man(a1-6)]Man(b1-4)GlcNAc(b1-4)GlcNAc
# In short: (§1)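 Glycan array binding is given as a within-array Z-score, which can be read as non-binding when negative. The arrays, 3228 of them, came from the Consortium for Functional Glycomics database and were retained only where the protein sequence was available. Z-scores were averaged across arrays of the same protein sequence at different concentrations or buffers and across linkers.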
# [2] = molecular target: Neu5Ac(a2-6)Gal(b1-4)GlcNAc(b1-2)Man(a1-3)[Neu5Ac(a2-3)Gal(b1-4)GlcNAc(b1-2)Man(a1-6)]Man(b1-4)GlcNAc(b1-4)GlcNAc
# In short: as §1
# [3] = molecular target: Neu5Ac(a2-6)Gal(b1-4)GlcNAc(b1-2)Man(a1-3)[Neu5Ac(a2-6)Gal(b1-4)GlcNAc(b1-2)Man(a1-6)]Man(b1-4)GlcNAc(b1-4)GlcNAc
# In short: as §1
# [4] = molecular target: Neu5Ac(a2-6)Gal(b1-4)GlcNAc(b1-2)Man(a1-3)[Neu5Ac(a2-6)Gal(b1-4)GlcNAc(b1-2)Man(a1-6)]Man(b1-4)GlcNAc(b1-4)[Fuc(a1-6)]GlcNAc
# In short: as §1
# [5] = molecular target: Neu5Ac(a2-6)Gal(b1-4)GlcNAc(b1-2)Man(a1-6)Man(b1-4)GlcNAc(b1-4)GlcNAc
# In short: as §1
# [6] = molecular target: Neu5Ac(a2-6)Gal(b1-4)GlcNAc(b1-2)Man(a1-6)[Gal(b1-4)GlcNAc(b1-2)Man(a1-3)]Man(b1-4)GlcNAc(b1-4)GlcNAc
# In short: as §1
# [7] = molecular target: Neu5Ac(a2-6)Gal(b1-4)GlcNAc(b1-2)Man(a1-6)[GlcNAc(b1-2)Man(a1-3)]Man(b1-4)GlcNAc(b1-4)GlcNAc
# In short: as §1
# [8] = molecular target: Neu5Ac(a2-6)Gal(b1-4)GlcNAc(b1-2)Man(a1-6)[Man(a1-3)]Man(b1-4)GlcNAc(b1-4)GlcNAc
# In short: as §1
# [9] = molecular target: Neu5Ac(a2-6)Gal(b1-4)GlcNAc(b1-2)[Neu5Ac(a2-6)Gal(b1-4)GlcNAc(b1-4)]Man(a1-3)[GlcNAc(b1-4)][Neu5Ac(a2-6)Gal(b1-4)GlcNAc(b1-2)[Neu5Ac(a2-6)Gal(b1-4)GlcNAc(b1-6)]Man(a1-6)]Man(b1-4)GlcNAc(b1-4)GlcNAc
# In short: as §1
# [10] = molecular target: Neu5Ac(a2-6)Gal(b1-4)GlcNAc(b1-2)[Neu5Ac(a2-6)Gal(b1-4)GlcNAc(b1-4)]Man(a1-3)[GlcNAc(b1-4)][Neu5Ac(a2-6)Gal(b1-4)GlcNAc(b1-4)Man(a1-6)]Man(b1-4)GlcNAc(b1-4)GlcNAc
# In short: as §1
# [11] = molecular target: Neu5Ac(a2-6)Gal(b1-4)GlcNAc(b1-2)[Neu5Ac(a2-6)Gal(b1-4)GlcNAc(b1-6)]Man(a1-6)[Neu5Ac(a2-6)Gal(b1-4)GlcNAc(b1-2)Man(a1-3)][GlcNAc(b1-4)]Man(b1-4)GlcNAc(b1-4)GlcNAc
# In short: as §1
# [12] = molecular target: Neu5Ac(a2-6)Gal(b1-4)GlcNAc(b1-3)Gal(b1-3)GlcNAc
# In short: as §1
# [13] = molecular target: Neu5Ac(a2-6)Gal(b1-4)GlcNAc(b1-3)Gal(b1-4)GlcNAc
# In short: as §1
# [14] = molecular target: Neu5Ac(a2-6)Gal(b1-4)GlcNAc(b1-3)Gal(b1-4)GlcNAc(b1-2)Man(a1-3)[Neu5Ac(a2-6)Gal(b1-4)GlcNAc(b1-3)Gal(b1-4)GlcNAc(b1-2)Man(a1-6)]GalNAc
# In short: as §1
# [15] = molecular target: Neu5Ac(a2-6)Gal(b1-4)GlcNAc(b1-3)Gal(b1-4)GlcNAc(b1-3)Gal(b1-4)GlcNAc
# In short: as §1
# [16] = molecular target: Neu5Ac(a2-6)Gal(b1-4)GlcNAc(b1-3)Gal(b1-4)GlcNAc(b1-3)Gal(b1-4)GlcNAc(b1-2)Man(a1-3)[Neu5Ac(a2-6)Gal(b1-4)GlcNAc(b1-3)Gal(b1-4)GlcNAc(b1-3)Gal(b1-4)GlcNAc(b1-2)Man(a1-6)]GalNAc
# In short: as §1
# [17] = molecular target: Neu5Ac(a2-6)Gal(b1-4)GlcNAc(b1-3)Gal(b1-4)GlcNAc(b1-3)GalNAc
# In short: as §1
# [18] = molecular target: Neu5Ac(a2-6)Gal(b1-4)GlcNAc(b1-3)Gal(b1-4)GlcNAc(b1-3)[Neu5Ac(a2-6)Gal(b1-4)GlcNAc(b1-3)Gal(b1-4)GlcNAc(b1-6)]GalNAc
# In short: as §1
# [19] = molecular target: Neu5Ac(a2-6)Gal(b1-4)GlcNAc(b1-3)Gal(b1-4)GlcNAc(b1-6)[Gal(b1-3)]GalNAc
# In short: as §1
# [20] = molecular target: Neu5Ac(a2-6)Gal(b1-4)GlcNAc(b1-3)Gal(b1-4)[Fuc(a1-3)]GlcNAc(b1-3)Gal(b1-4)[Fuc(a1-3)]GlcNAc
# In short: as §1
# [21] = molecular target: Neu5Ac(a2-6)Gal(b1-4)GlcNAc(b1-3)GalNAc
# In short: as §1
# [22] = molecular target: Neu5Ac(a2-6)Gal(b1-4)GlcNAc(b1-3)[Neu5Ac(a2-6)Gal(b1-4)GlcNAc(b1-6)]GalNAc
# In short: as §1
# [23] = molecular target: Neu5Ac(a2-6)Gal(b1-4)GlcNAc(b1-6)GalNAc
# In short: as §1
# [24] = molecular target: Neu5Ac(a2-6)Gal(b1-4)GlcNAc(b1-6)[Gal(b1-3)GlcNAc(b1-3)]Gal(b1-4)Glc
# In short: as §1
# [25] = molecular target: Neu5Ac(a2-6)Gal(b1-4)GlcNAc(b1-6)[Gal(b1-3)]GalNAc
# In short: as §1
# [26] = molecular target: Neu5Ac(a2-6)Gal(b1-4)GlcNAc6S
# In short: as §1
# Neu5Ac(a2-6)GalNAc = molecular target: Neu5Ac(a2-6)GalNAc
# In short: as §1
# [27] = molecular target: Neu5Ac(a2-6)GalNAc(b1-4)GlcNAc
# In short: as §1
# [28] = molecular target: Neu5Ac(a2-6)GalNAc(b1-4)GlcNAc6S
# In short: as §1
# [29] = molecular target: Neu5Ac(a2-6)GlcNAc(b1-4)GlcNAc
# In short: as §1
# [30] = molecular target: Neu5Ac(a2-6)GlcNAc(b1-4)GlcNAc(b1-4)GlcNAc
# In short: as §1
binder,measurement,setting,value
B1,glycan array binding signal (z-score),[1],-0.297
same,glycan array binding signal (z-score),[2],-0.375
same,glycan array binding signal (z-score),[3],-0.232
same,glycan array binding signal (z-score),[4],-0.329
same,glycan array binding signal (z-score),[5],-0.392
same,glycan array binding signal (z-score),[6],-0.356
same,glycan array binding signal (z-score),[7],-0.379
same,glycan array binding signal (z-score),[8],-0.238
same,glycan array binding signal (z-score),[9],-0.383
same,glycan array binding signal (z-score),[10],-0.342
same,glycan array binding signal (z-score),[11],-0.337
same,glycan array binding signal (z-score),[12],-0.29
same,glycan array binding signal (z-score),[13],-0.344
same,glycan array binding signal (z-score),[14],-0.298
same,glycan array binding signal (z-score),[15],-0.278
same,glycan array binding signal (z-score),[16],-0.183
same,glycan array binding signal (z-score),[17],-0.388
same,glycan array binding signal (z-score),[18],-0.332
same,glycan array binding signal (z-score),[19],-0.33
same,glycan array binding signal (z-score),[20],-0.263
same,glycan array binding signal (z-score),[21],-0.279
same,glycan array binding signal (z-score),[22],-0.395
same,glycan array binding signal (z-score),[23],-0.403
same,glycan array binding signal (z-score),[24],-0.321
same,glycan array binding signal (z-score),[25],-0.333
same,glycan array binding signal (z-score),[26],-0.309
same,glycan array binding signal (z-score),Neu5Ac(a2-6)GalNAc,-0.257
same,glycan array binding signal (z-score),[27],4.03
same,glycan array binding signal (z-score),[28],-0.201
same,glycan array binding signal (z-score),[29],2.23
same,glycan array binding signal (z-score),[30],5.02
